{
  "source": "paper PMC10726135",
  "note": "This is one part of the list. At the low end of the ranking, values are background and their order means little. The protein was read in a cell extract, so binding may be indirect.",
  "data": [
    {"biological_target": "T1, HNF4alpha8 (COS-7 nuclear extract) (UniProt P41235-5)", "T1 sequence": "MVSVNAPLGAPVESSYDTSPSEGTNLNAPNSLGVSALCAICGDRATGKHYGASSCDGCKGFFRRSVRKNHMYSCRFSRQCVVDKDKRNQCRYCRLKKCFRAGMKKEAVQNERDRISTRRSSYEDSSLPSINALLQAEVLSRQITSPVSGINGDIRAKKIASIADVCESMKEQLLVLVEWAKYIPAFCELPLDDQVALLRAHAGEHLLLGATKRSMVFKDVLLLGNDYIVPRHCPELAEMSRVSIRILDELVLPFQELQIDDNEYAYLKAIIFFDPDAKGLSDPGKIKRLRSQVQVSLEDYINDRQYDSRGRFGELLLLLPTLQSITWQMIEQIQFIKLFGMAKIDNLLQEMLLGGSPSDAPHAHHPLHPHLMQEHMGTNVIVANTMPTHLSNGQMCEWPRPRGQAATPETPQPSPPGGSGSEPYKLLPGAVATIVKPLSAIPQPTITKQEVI", "experiment": "protein-binding microarray", "details": "COS-7 nuclear extract on double-stranded Agilent 4x180k PBM; binding buffer, salt, pH and temperature not given; high values mean tight binding; double strand, one strand shown; sequences stand for … in …GCCTAGGGAGATTAGAGTATCGGTCGA", "values": [
      {"sequence": "CTTTGGTAGGCTGTATGGCTGCACAGGGCT", "binding signal (log2 normalized intensity)": -1.38},
      {"sequence": "GAATTCTTGACTTTGGACTTTCAAAAGTTA", "binding signal (log2 normalized intensity)": 5.14},
      {"sequence": "ACCCAATACCCAGAGTGATCTTTGAAACAT", "binding signal (log2 normalized intensity)": 3.55},
      {"sequence": "GTCTTAGGGACTAAGCTTGTAGACCAAGGA", "binding signal (log2 normalized intensity)": -0.97},
      {"sequence": "TTGAGTCCTTCATGGCTACCCTTCATCTTC", "binding signal (log2 normalized intensity)": 0.864},
      {"sequence": "GCAATGTGGACTTTGTCCTGTGGGCTGTAA", "binding signal (log2 normalized intensity)": 8.03},
      {"sequence": "CGCAGACCCAGTCTTAGGGACTAAGCTTGT", "binding signal (log2 normalized intensity)": -1.29},
      {"sequence": "GAGTTATCTCTTGACTCTTCCCATCTAACT", "binding signal (log2 normalized intensity)": -1.11},
      {"sequence": "GGACATTGGCTGATAAAACAAATCTACAAA", "binding signal (log2 normalized intensity)": -1.1},
      {"sequence": "ATTGTACAGGTTCCCTCATGATTTAGTAAG", "binding signal (log2 normalized intensity)": 0.138},
      {"sequence": "AACCTAGACAGAAGCTTTCTGAGAAACTTC", "binding signal (log2 normalized intensity)": -1.31},
      {"sequence": "CAGGGTCTAGCAGTGCAGCGGGGTCAGAGA", "binding signal (log2 normalized intensity)": 2.7},
      {"sequence": "GCATGGTGATGCTAGCTACTACATGATGCT", "binding signal (log2 normalized intensity)": -1.3},
      {"sequence": "TCCTTGTCTGTTTGGCCTTAGGTCCTTTGA", "binding signal (log2 normalized intensity)": 2.56},
      {"sequence": "CCAACAGTTGAGAATTCCAGAGATGCCAGG", "binding signal (log2 normalized intensity)": -1.26},
      {"sequence": "TCTGGGCCTGGCAAGACTTCTTCAGGGAGA", "binding signal (log2 normalized intensity)": -1.21},
      {"sequence": "TCTGCCTTTTATCTATTTGTCGCCTCTGAC", "binding signal (log2 normalized intensity)": 0.313},
      {"sequence": "TTTCCTGCCCCTTCACATATTTTGAAAGAA", "binding signal (log2 normalized intensity)": 1.43},
      {"sequence": "CTTGCTTAGGATAGGGTCAGTCTTTGTTCT", "binding signal (log2 normalized intensity)": 2.28},
      {"sequence": "AGATGAGCCAGGCCAACACCAAGCAAGCTC", "binding signal (log2 normalized intensity)": -1.3},
      {"sequence": "GGTTCCCACAGCCCAACTCGGAGGACTGAG", "binding signal (log2 normalized intensity)": -1.36},
      {"sequence": "TGCACTTTACTCAGAAAGGTCAGCGCTTTG", "binding signal (log2 normalized intensity)": 1.68},
      {"sequence": "ACCTGGCCTGCGGGGTCAGGCCGTGGTGTA", "binding signal (log2 normalized intensity)": 2.54},
      {"sequence": "AGCAAGTCAGATGGCCAAAGTCAACATTGA", "binding signal (log2 normalized intensity)": 0.939},
      {"sequence": "GAGTTCTAAGAGCCTACTGAGAGGAAAGGG", "binding signal (log2 normalized intensity)": -1.38},
      {"sequence": "CGTAAATGCACGGAAGCCTTCCCCGCCCGC", "binding signal (log2 normalized intensity)": 3.1},
      {"sequence": "GCTGGTCAAAGGGCATTACTTGCTGGAGAA", "binding signal (log2 normalized intensity)": 3.83},
      {"sequence": "GACAGGGGAGATAAGGCCCGGCTGATGGGA", "binding signal (log2 normalized intensity)": -1.28},
      {"sequence": "TGTATTCCCTCTCTTCAGAATGGCCTGCCC", "binding signal (log2 normalized intensity)": 1.93},
      {"sequence": "TTACAACGCTGTTGTCTGTGACTGGGGTCA", "binding signal (log2 normalized intensity)": 4.26},
      {"sequence": "TCAAGGGAATCTGCTGTAATAAAGCCTTAT", "binding signal (log2 normalized intensity)": -1.27},
      {"sequence": "GAATACTGCTGGGTCAGTTTATCTAAGATT", "binding signal (log2 normalized intensity)": 1.06},
      {"sequence": "AAATAAGGATAAAGTAAGGTGAAGCCCAGC", "binding signal (log2 normalized intensity)": -1.36},
      {"sequence": "CATGTCTAAAGGCTGTGTCGGTATAAGTTC", "binding signal (log2 normalized intensity)": 1.67},
      {"sequence": "CTTTGTAGCACTTTGGACCTCCACTTTGGA", "binding signal (log2 normalized intensity)": 3.36},
      {"sequence": "CTGTACCAATTATTGCGAGTTTAGGAGGGT", "binding signal (log2 normalized intensity)": 0.678},
      {"sequence": "CAGCAGGCCAGGCCAAATCAGAACTGAGTT", "binding signal (log2 normalized intensity)": -1.39},
      {"sequence": "CAAATGGAGAAGGTCTAAGTAAACTGTTCA", "binding signal (log2 normalized intensity)": -0.633},
      {"sequence": "AAAGCGCAGCGCGGGGCTCAAAGGCGGCCC", "binding signal (log2 normalized intensity)": -1.23},
      {"sequence": "GGTAAAGGTGAAGGCTGACCACGGGGGCCG", "binding signal (log2 normalized intensity)": -1.35},
      {"sequence": "CACCTTAGAGGGACGAAGGTCACTAATTGG", "binding signal (log2 normalized intensity)": 3.69},
      {"sequence": "TTGGGTCACAATCACAAATGCCTTCAGGGG", "binding signal (log2 normalized intensity)": 0.936},
      {"sequence": "CTCTCTTTCTTCCCCCACTCCAAGTTCCTT", "binding signal (log2 normalized intensity)": 3.92},
      {"sequence": "TACACAGACCCTCTTTTCTTTGTACCGTAT", "binding signal (log2 normalized intensity)": 2.09},
      {"sequence": "TCCGGAAACGTATGACTTTGGAGCACTCAT", "binding signal (log2 normalized intensity)": -0.716},
      {"sequence": "CACAGAACAAACAGTACATTCTGGAATGAT", "binding signal (log2 normalized intensity)": -1.33},
      {"sequence": "TCTGATGCCATGATAAGCAGTGTGGACTTT", "binding signal (log2 normalized intensity)": 7.54},
      {"sequence": "CAGTAAAAGCTCTACCTGACCTCCCAAAAT", "binding signal (log2 normalized intensity)": 2.26},
      {"sequence": "GCGAAGGCAGTGTGGCACCCTCCCTTCCCG", "binding signal (log2 normalized intensity)": 2.77},
      {"sequence": "TCCAGGAGTATGTGTTTGCTTTACCTTAGT", "binding signal (log2 normalized intensity)": 1.07},
      {"sequence": "TGAGTCTGGTGTTTCCCTGTTTGCTTCTGC", "binding signal (log2 normalized intensity)": 1.01},
      {"sequence": "CTACCTCTTAGCTACCCTGTTTACAATGGA", "binding signal (log2 normalized intensity)": 1.45},
      {"sequence": "AGATTCTGCAAACCTATTAATATATTCATA", "binding signal (log2 normalized intensity)": -0.929},
      {"sequence": "CCCGGCAGCCCTGCTCCCCGCCTTGGCCTC", "binding signal (log2 normalized intensity)": 1.68},
      {"sequence": "TGTTTGACGACTGTCTGCCATGGGCCTGGC", "binding signal (log2 normalized intensity)": -1.05},
      {"sequence": "TCATTGCACAGTTACTCCACAACTTGTTCT", "binding signal (log2 normalized intensity)": 0.0687},
      {"sequence": "TAATATCTAAGATGTAGCTGCAAAGATAAG", "binding signal (log2 normalized intensity)": -1.26},
      {"sequence": "TGCTTAAGTGGCTCACCCAAGTCACACAGT", "binding signal (log2 normalized intensity)": -1.26},
      {"sequence": "ATTGGCTGTTTAGTAGAGAGCAGGTACCAC", "binding signal (log2 normalized intensity)": 0.492},
      {"sequence": "TATGCAAATGTTATGGCTGGTTTGGTCTTT", "binding signal (log2 normalized intensity)": 2.76},
      {"sequence": "CAGCAGAGAGTTTTCCTTGGCTGTGCTGCC", "binding signal (log2 normalized intensity)": -1.16},
      {"sequence": "ACCGCCTACCTTTGGACTTCTCATTACATG", "binding signal (log2 normalized intensity)": 3.42},
      {"sequence": "GGTTAGAATCCTTATCTGGTGTGCTTTCTG", "binding signal (log2 normalized intensity)": 1.76},
      {"sequence": "GCGCCAATACCTGCCGCGCGGGGCGCCTCC", "binding signal (log2 normalized intensity)": -1.27},
      {"sequence": "TCCGAGATAAGGCGTCTTATCAGCCCCCAT", "binding signal (log2 normalized intensity)": 3.96},
      {"sequence": "AGATAAGAGCCACCCTCAAATCAGTGAAGG", "binding signal (log2 normalized intensity)": -1.38},
      {"sequence": "CAGTACAAATAAACCTTTGACCAATTGACC", "binding signal (log2 normalized intensity)": 4.34},
      {"sequence": "AGTTTGACCTGGAGCCAGGGCCTTTTCAAG", "binding signal (log2 normalized intensity)": -1.15},
      {"sequence": "ACTCATGGGCAAGATGGCTCTCCCGGGGCG", "binding signal (log2 normalized intensity)": -1.17},
      {"sequence": "GCTGAGAGAGTCCTTGTTTGGTTAGTGCTG", "binding signal (log2 normalized intensity)": 0.499},
      {"sequence": "CAAAGGATGGAAGCTCTGAAAGCTTCAAAG", "binding signal (log2 normalized intensity)": -1.36},
      {"sequence": "AATGAGGCGACATCAAAGCATTTGGAGATT", "binding signal (log2 normalized intensity)": -1.25}
    ]}
  ]
}
